These results are taken from the supplement of paper PMC4604168 (melanoma cell lines).

Some of the results follow. Single values are uncertain, as repeats are few or missing.

Some test systems named below: MZ2-MEL; MeWo; RPMI7951; RVH-421; SkMel28; SkMel2; SkMel30; SkMel5; UACC257; UACC62; WM115; WM1716; WM1745; WM3526; WM3619; WM451Lu.
What all share (test): cell count relative to DMSO control; melanoma cells; higher = more viable cells
Conditions in all cases: library dose: low library concentration; 72 h
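Also: cell number obtained by counting DAPI-stained nuclei in high-throughput microscope images with image analysis software, screen run in 1,536-well plates.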

For `O=C(O)c1ccc2c(c1)nc(Nc1cccc(Cl)c1)c1ccncc12` + OCCn1cc(-c2cnc3nnn(Cc4ccc5ncccc5c4)c3n2)cn1 [PF04217903] (first compound 0.4 µM, partner dose 1 µM), the cell count with MZ2-MEL amounted to 99.3%; in the experiment on MeWo, 97.7%; with RPMI7951, 129%; in the experiment on RVH-421, 117%; in the experiment with SkMel28, 104%; in the experiment on SkMel2, 106%. Moreover, the cell count in the experiment with SkMel30 came to 93.1%; with SkMel5 it was 104%; in the experiment with UACC257, 103%; in the experiment on UACC62 it was 108%; in the experiment with WM115, 112%; in the experiment with WM1716 it was 101%. The cell count with WM1745 was 88.5%; in the experiment on WM3526 it was 69.3%; with WM3619 it was 113%; in the experiment on WM451Lu, 86.4%.

For `O=C(O)[C@@H]1[O][Sb](=[O])([O][Sb]2(=[O])[O][C@H]([C@H](O)CO)[C@H](O)[C@H](C(=O)O)[O]2)[O][C@H]([C@H](O)CO)[C@@H]1O` (stereo not given in full) [stibogluconate] + COC(=O)c1sccc1S(=O)(=O)Nc1ccc(Nc2ccccc2)cc1OC [GSK0660] (first compound 2 µM, partner dose 1 µM), the cell count in the experiment with MZ2-MEL was 93.4%; in the experiment with MeWo, 97.4%; in the experiment on RPMI7951, 108%; in the experiment with RVH-421 it was 109%; with SkMel28 it was 93.7%; with SkMel2, 92.7%. Further, the cell count worked out at 98.6% with SkMel30; 110% with SkMel5; 99.8% with UACC257; 90.7% in the experiment with UACC62; 113% in the experiment on WM115; 108% in the experiment on WM1716. Further, the cell count in the experiment with WM1745 turned out to be 104%; in the experiment with WM3526 it was 110%; in the experiment with WM3619, 129%; in the experiment on WM451Lu, 117%.

In the case of `O=C(O)[C@@H]1[O][Sb](=[O])([O][Sb]2(=[O])[O][C@H]([C@H](O)CO)[C@H](O)[C@H](C(=O)O)[O]2)[O][C@H]([C@H](O)CO)[C@@H]1O` (stereo not given in full) [stibogluconate] + Oc1nc(-c2ccc(C(F)(F)F)cc2)nc2c1CSCC2 [XAV939] (first compound 2 µM, partner dose 2 µM), the cell count with MZ2-MEL turned out to be 103%; with MeWo, 97.2%; in the experiment on RPMI7951, 86.3%; with RVH-421, 91.2%; in the experiment on SkMel28, 108%; in the experiment with SkMel2, 92.1%. The cell count was 115% with SkMel30; 76.9% in the experiment with SkMel5; 84% in the experiment on UACC257; 107% in the experiment with UACC62; 94.2% in the experiment on WM115; 54.4% in the experiment on WM1716. The cell count in the experiment with WM1745 worked out at 94.4%; with WM3526 it was 114%; in the experiment on WM3619 it was 85.9%; in the experiment on WM451Lu, 88.2%.

With `Cc1cc(N2CCOCC2)cc2[nH]c(-c3c(NC[C@@H](O)c4cccc(Cl)c4)cc[nH]c3=O)nc12` + COc1cc2c(Oc3ccc4[nH]c(C)cc4c3F)ncnc2cc1OCCCN1CCCC1 [cediranib] (first compound 0.2 µM, partner dose 0.4 µM), the cell count with MZ2-MEL was determined as 92.2%; in the experiment on MeWo, 94.7%; with RPMI7951 it was 83%; in the experiment on RVH-421 it was 95.2%; with SkMel28, 99%; in the experiment on SkMel2 it was 91.4%. In addition, the cell count with SkMel30 stood at 89.7%; in the experiment with SkMel5 it was 85.7%; with UACC257, 85.6%; in the experiment on UACC62 it was 78.8%; with WM115, 108%; in the experiment with WM1716, 112%. The cell count with WM1745 turned out to be 72.1%; in the experiment on WM3526, 82.9%; with WM3619, 139%; with WM451Lu it was 82.3%.

`O=C(Nc1cc(C(F)(F)F)cc(C(F)(F)F)c1)c1cc(Cl)ccc1O` + O=C1NC(=O)/C(=C/c2ccc(-c3ccc(F)cc3O)o2)S1 [AS252424] (first compound 0.016 µM, partner dose 1 µM): the cell count in the experiment with MZ2-MEL is 106%; with MeWo it was 97.5%; with RPMI7951, 101%; in the experiment on RVH-421, 73.3%; in the experiment with SkMel28 it was 84.4%; in the experiment on SkMel2 it was 101%. The cell count with SkMel30 stood at 94.5%; in the experiment with SkMel5, 90.3%; in the experiment with UACC257 it was 105%; with UACC62, 88.2%; in the experiment on WM115, 92.9%; in the experiment on WM1716 it was 113%. Further, the cell count amounted to 108% in the experiment with WM1745, 92.7% in the experiment with WM3526, 128% in the experiment with WM3619 and 116% in the experiment with WM451Lu.

For `O=C(O)c1ccc2c(c1)nc(Nc1cccc(Cl)c1)c1ccncc12` + Nc1ccn([C@@H]2O[C@H](CO)[C@@H](O)C2(F)F)c(=O)n1 [gemcitabine] (first compound 0.4 µM, partner dose 0.0004 µM), the cell count with MZ2-MEL turned out to be 77.2%; in the experiment with MeWo it was 89.4%; in the experiment with RPMI7951 it was 94.8%; in the experiment with RVH-421 it was 94.9%; with SkMel28, 103%; in the experiment with SkMel2, 88.9%. The cell count was found to be 79.8% with SkMel30; 103% with UACC62; 108% with WM115; 85.2% in the experiment with WM1716; 93.1% in the experiment on WM1745; 81.2% in the experiment with WM3526. Further, the cell count with WM3619 amounted to 63.1%; in the experiment on WM451Lu, 98.1%.

For the compound `O=C(O)c1ccc2c(c1)nc(Nc1cccc(Cl)c1)c1ccncc12` + CCCS(=O)(=O)Nc1ccc(F)c(C(=O)c2c[nH]c3ncc(Cl)cc23)c1F [PLX4720] (first compound 0.4 µM, partner dose 0.08 µM), the cell count in the experiment on MZ2-MEL was 79.7%; with MeWo, 89.9%; in the experiment on RPMI7951, 86.4%; in the experiment with RVH-421, 101%; in the experiment on SkMel28, 88.8%; in the experiment on SkMel2, 102%. Also, the cell count with SkMel30 is 91.6%; in the experiment with UACC62, 65.6%; in the experiment with WM115, 92.8%; in the experiment with WM1716 it was 85.1%; in the experiment with WM1745, 90.7%; in the experiment on WM3526, 78.6%. Also, the cell count in the experiment with WM3619 turned out to be 87.2%; in the experiment with WM451Lu, 120%.

`O=C(O)c1ccc2c(c1)nc(Nc1cccc(Cl)c1)c1ccncc12` + Clc1ccc(Nc2nnc(Cc3ccncc3)c3ccccc23)cc1 [vatalanib] (first compound 0.4 µM, partner dose 2 µM): the cell count was 86.5% in the experiment with MZ2-MEL; 82.7% with MeWo; 89.2% in the experiment with RPMI7951; 101% in the experiment with RVH-421; 107% in the experiment on SkMel28; 98.9% with SkMel2. The cell count is 91.3% in the experiment on SkMel30; 94.2% in the experiment on UACC62; 103% with WM115; 80.9% in the experiment on WM1716; 93% in the experiment on WM1745; 81.5% with WM3526. In addition, the values for the cell count with WM3619 and with WM451Lu were 81.3% and 91.3%, respectively.

`O=C(O)c1ccc2c(c1)nc(Nc1cccc(Cl)c1)c1ccncc12` + Nc1ncn([C@H]2C[C@H](O)[C@@H](CO)O2)c(=O)n1 [decitabine] (first compound 0.4 µM, partner dose 0.1 µM): the cell count with MZ2-MEL was 77.7%; in the experiment on MeWo it was 83.7%; in the experiment with RPMI7951, 79.4%; in the experiment with RVH-421, 77.3%; in the experiment with SkMel28, 93.9%; in the experiment on SkMel2, 95%. The cell count in the experiment on SkMel30 amounted to 84.9%; in the experiment on UACC62, 71%; in the experiment on WM115 it was 83%; in the experiment with WM1716, 72.9%; with WM1745 it was 96.6%; in the experiment with WM3526 it was 83.1%. The figures for the cell count with WM3619 and with WM451Lu were 73.5% and 88.8%, respectively.

On to `O=C(Nc1cc(C(F)(F)F)cc(C(F)(F)F)c1)c1cc(Cl)ccc1O` + Cc1nc(Nc2ncc(C(=O)Nc3c(C)cccc3Cl)s2)cc(N2CCN(CCO)CC2)n1 [dasatanib] (first compound 0.016 µM, partner dose 0.004 µM), for which the cell count with MZ2-MEL amounted to 78.5%; in the experiment with MeWo, 86.4%; in the experiment with RPMI7951 it was 64.2%; with RVH-421 it was 78.5%; in the experiment with SkMel28, 64.1%; with SkMel2, 96.4%. Further, the cell count turned out to be 92.7% with SkMel30; 103% in the experiment on UACC62; 76.8% with WM115; 91.4% in the experiment with WM1716; 64.4% in the experiment on WM1745; 123% in the experiment on WM3526. The cell count in the experiment with WM3619 stood at 90.7%; in the experiment on WM451Lu it was 105%.
